Reference: the RNAGym collection of RNA variant scans (doi:10.1073/pnas.2313332121)
Variants at the background level are over-represented here.

B1: TPR 5TU (parent)
chain: GGAUCUUCUCGAUCUAACAAAAAAGACAAAUCUGCCACAAAGCUUGAGAGCAUCUUCGGAUGCAGAGGCGGCAGCCUUCGGUGGCGCGAUAGCGCCAACGUUCUCAACUAUGACACGCAAAACGCGUGCUCCGUUGAAUGGAGUUUAUCAUG

Variants of: B1
Experiment: polymerase ribozyme fitness, log enrichment relative to wild type (log ratio); higher = more active; in vitro selection for triplet polymerase activity
Summary of the method: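 PCR was used to build mutant libraries for each subunit of a heterodimeric triplet polymerase ribozyme, which were then transcribed. A single in vitro selection round, in triplicate, used a frozen incubation at −7 °C and recovered extended constructs by gel excision, streptavidin beads and RT-PCR. Fitness is the logarithm of genotype enrichment relative to wild-type enrichment, averaged over replicates with inverse-variance weights. The logarithm is base 2, and after Illumina sequencing only genotypes with ≥10 input reads and ≥1 read per output were kept.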

Polymerase ribozyme fitness (log ratio), ≤ -4.2:
GGAUCUUAUCGAUCUAACAAAAAAGACAAAUCUGCCACAAAGCUUGAGCGCAUCUUCGGAUGCAGCGGCGGCAGCCUUCGCUUGCGCGAUAGCGCCAAUGGUCUCAAUUAUGACACGCAAAACGCGUGCUCCGUUGAAUGGAGUUUAUCAUG
GGAUCUUAUCGAUCUAACAAAAAAGACAAAUCUGCCACAAAGCUUGAGAGCCUCUUCGGAUGCAGAGGCGGCAGCCUUCGGUGGCGCCAUCGCGCCAACGUUCUCAACUAUGACACGCAAAACGCGUGCUCCGUUGAAUGGAGUUUAUCAUG
GGAUCUUAUCGAUCUAACAAAAAAGACAAAUCUGCCACAAAGCUUGAGAGCAUCUUCGGAUGCAGAGGCGGCAGCCUUCGGUGGCGCGAUCGCGCCAACGUUCUCAACUAUGACACGCAAAACGCGUGCUCCGUUGAAUGGAGUUUAUCAUG
GGAUCUUAUCGAUCUAACAAAAAAGACAAAUCUGCCACAAAGCUUGAGAGCAUCUUCGGAUGCAGAGGCGGCAGCCUUCGGUGGCGCGAUAGCGCCAACGUUCUCACGUAUGACACGCAAAACGCGUGCUCCGUAGAAUGGUGUUUAUCAUG
GGAUCUUAUGGAUCUAACAAAAAAGACACGUCUGCCACAAAGCUUGAGAGCAUCUUCGGAUGCAGAGGCGGCAGCCUUCGGUGGCGCGAGAGCGCCAACGUUCGCAACUAUGACACGCUAAACGCGUGCUCCGUUGAAUGCAGUUUAUCAUG
GGAUCUUAUCGAUCUAAUAAAAAAGACAAAUCUGCCACAAAGCUUGAGAGCAUCUUGGGAUGCAGAGGCGGCAGCCUUCGGUGACGCGAUAGCGCCAACGGUCUCAACUAUGACGCGCAAAACGCGUGCUCCGUUGAAUGGAGUUUAUCAUG
GGAUCUUAUCGAUCUAACAAAAAAGAGAAAUCUGCCACAAAGCUUGAGAGCAUCUUCGGAUGCAGAGGCGGCAGCCUUCGGUGGCGCGGUAGCGCCAACGUUCUCAACUAUGACACGCAAAACGCGUGCUCCGUUGAAUGGAGUUUAUCAUG
GGAUCUUAUCGAUCUAACAAAAAAGAGAAAUCUGCCACAAAGCUUGAGACCAUCUUCGGAUCCAGAGGCGGCAGCCUUCGGUGGCGCGAUAGCGCGAACGUUCUCAACUAUGACACGCAAAACGCGUGCUCCGUUGAAUGGAGUUUAUCAUG
GGAUCUUAUCGAUCUAACAAAAAAGAUAGAUCUGCCACAAAGCUUGAGGGCAUCUUCAGAUGCAGAGGCGGCAGCCUUCGGUGGCGCGAUAGCGCCAACGUUCUCAACUAUGACACGCAAAACGCGUGCUCCGUUGAAUGGAGUUUAUCAUG
GGAUCUUAUCGAUCUAACAAAAAAGACAAAUCUGCCACAAAGUUUGCGAGCAUUUUCGGAUGCAGACGCGUCAGCCUUCGGUGGCGCGAUAGCGCCAACGUUCUCAACCAUGACAUGCAGAACGCGUGCUCCGUUGAAUGGAGUUUAUCAUG
GGAUCUUAUCGAUCUAACAAAAAAGACAAAUCUGCCACAAAGCUUGAGAGCAUCUUGGGAUGCAGAGGCGGCAGCCUUCGGUGGCGUGAUAGCGCCAACGUUCUCAACUAUGACACGCAAAACGCGUGCUCCGUUGAAUGGAGUUUAUCAUG
GGAUCUUAUCGAUCUAACAAAAAAGACAAAUCUGCCACAAAGCUUGAGAGCAUCUUCGGAUGCAGAGGCGGCAGCCUUCGGUGGAGCGAUCGCGCCAACGUUCUCAACUAUGACACGCAAAACGCGUGCUCCGUUUAAUGGAGUUUAUAAUG
GGAUCUUAUCGAUCUAACAAAAAAGACAAAUCUGCCACAAAGCUUGAGAGCAUCUUCGGAUGCAGAGGCGGCAGCCUUCGGUGGCGCGAUAGCGCCAACGUUGUCAAGUAUGACACGCAAAACCCGUGCUCCGUUGAAUGGAGAGUAUCAUG
GGAUCUUAUCAAUCUAACAAAAAAGACAAAUAUGCCACAAAGCUUGAUAGCAUCUUUGGAUGCGGAGGCGGCAGCCUUCGGUUGCGCGAUAGCGCCAACGUUAUCUACUAUGACACGCAAAACGCGUGCUCCGUUGAAUGGAGUGUAUCAUG
GGAUCUUAUCCAUCUAACAAAAAAGACAAAUCUGCCACAAAGCUUGAGAGCAUCUUCAGAUGCAGAGGCGGCAGCCUUCGGUGGCGGGAUAGCGUCAACGUUCUCAACUAUGACACGCAAAACGCGUGCUCCGUUGAAUGGAGUUUAUCAUG
GGAUCUUAUCGAUCUAACAAAAAAGACAAAUCUCCCACAAAGCUUGAGAGCAUCUUCGGAUGCAGAGGCGGCAGCCUUCGGUGGCGCAAUAGCGCCCACGUCCUCCACUAUGACAGGCAAAACGCGUGCUCCGUUUAAUGGAGUUUAUCAUG
GGAUCUUAUCGAUCUAACAAAAAAGACAAAUCUGCCACAAAACUUGAGAGCAUCUUCGGAUGCAGAGGCGGCAGGCUUCGGUGGCGAGAUAGCGCCAACGUUCUCAACUAUGACACGCAAAACGCGUGCUCCGUUGAAUGAAGUUUAUCAUG
GGAUCUUAUCGAUCUAACAAAAAAGACAAAUCUGCCACAAAGCUUAAGAGCAUCUUCGGAUGCAGAGGCGGCAGCCUUCGGUGGCACGAUAACGCCAACGUUCUCAACUAUCACACGCAAAACGCGUGCUCCGUUGAAUGGAUUUUAUCAUG
GGAUCUUAUCGAUCUAACAAAAAAGACAAAUCUGCCACAAAGCUUUAGAGCAUCUUCGGAUGCAGAGGCGGCAGCCUUCGGUGGCGCGAUAGCGCUAACGUUCUCAACUAUGACACGCAAAACGCGUGCUCCGUUGAAUGGAGUUGAUCAUG
GGAUCUUAUCGAUCUAACAAAAAAGACAAAUCUGCCACAAAGCUUGACAGCAUCUUCGGAUGCAGAGGCGGCAGCCUUCGGUGGGGCGAUAGCGCUAACGUUCUCAACUAUGACACGCAAAACGCGUGCUCCGUUGUAUGUAGUUUAUCAUG
GGAUCUUAUCGAUCUAACAAAAAAGACAAAUCUGCCACAAAGCUUGAUAGCGUCUUCGGAUGCAGAGGCGGCAGCCUUCGGUAGAGCGAUAGUGCCAACGUUCUCAACUAUGACACGCAAAACGCGUGCUCCGUUGAAUGGAGUUUAUCAUG
GGAUCUUAUCGAUCUAACAAAAAAGACAAAUCUGCCACAAAGCUUGAUAGCAUCUUCCGAUGCAGAGGCGGCAGCCUUCGGUGGCGCGAUAGCGCCAACGUUGUCAACUAUGACACGCAAAACGCGUGCUCCGUUGAAUGGAGUUUAUCAUG
GGAUCUUAUCGAUCUAACAAAAAAGACAAAUCUGCCACAAAGCUUGAGAACAUCUUCGGAUGCAGAGGCGGUAGCCUUCGGUGGCGCGAUAGCGCGAACGUUCUUAACUAUGACACGCAAAACGCGUGCUCCGUUGAAUCGAGUUUAUCAUG
GGAUCUUAUCGAUCUAACAAAAAAGACAAAUCUGCCACAAAGCUUGAGAGCAUCUUCUGAUGCAGAUGCGGCAGCCUGCGGUGGCGCGAUAGCGCCAACGUUCUCAACUAUGACAGGAAAAACGCGUGCUCCGUUGAAUGGAGUUUAUCAUG
GGAUCUUAUCGAUCUAACAAAAAAGACAAAUCUGCCACAAAGCUUGAGAGCAUCUUCGCAUGCAGACGCGGCAGCCUUCGGUGGCGCGAUAGCUCUAACGUUCUCAACUAUGACACGCAAAACGCGUGCUCCGUUGAAUGGAGUUUAUCAUG
GGAUCUUAUCGAUCUAACAAAAAAGACAAAUCUGCCACAAAGCUUGAGAGCAUCUUCGGAUGCAGAGACGGCAGCGUUCGGUGGUGCGAAAGGGCCAACGUUCUCAUCUAUGACACGCAAAACGCGUGCUCCGUUGAAUGGAGUUUAUCAUG
GGAUCUUAUCGAUCUAACAAAAAAGACAAAUCUGCCACAAAGCUUGAGAGCAUCUUCGGAUGCAGAGGCAGCAGCCUUCGGUGGCGCGAUAGCGCCAACGUUCUCAACUAUGACACGCAAAACGCGUGCUCCGUUGAAUGGAGUUUAUCAUG
GGAUCUUAUCGAUCUAACAAAAAAGACAAAACUGCCGCAAAGCUUGAGAGCAUCUUCGGAUGCAGAGGCGGCAGCCUUCGGUGGCGCGAUAGAGCCAACGUUCUCAACUAUGACACGCAAAACGCGUGCUCCGUUGAAUGGAGUUUAUCAUG
GGAUCUUAUCGAUCUAACAAAAAAGACAAACCUGCCACAAAGCUUGAGAGCAUCUUCGGAUGCUGAGGCGGCAGCCUUCGGUGGCGCGAUAGCGCAAACGUUCUCAACUAUGGCACGCAAAACGCGUGCUCCGUUGGAUGGUGUUUAUCCUG
GGAUCUUAUCGAUCUAACAAAAAAGACAAACCUGCCAUAAAGCUUGUGAGCAUCUUCGGAUGCAGAGGCGGCAGCCUUCGGUGGCGCGAUAGGGCCAACGUUCUCAACUAUGACACGCAAAACGCGUGCUCCGUUGAAUGGACUUCAUCAUG
GGAUCUUAUCGAUCUAACAAAAAAGACAAAUCCGCCACAAAGCGUGAGAGCAUCUUCGGAAGCAGAGGCGGCAGCCUUCGAUGGCGCGAUAGCGCCAACGUUCUCAACUAUGACACGCAAAACGCGUGCUCCGUUGAAUGGAGUUUAUCAUC
GGAUCUUAUCGAUCUAACAAAAAAGACAAAUCUGCCACAAAGCAUGAGAGCAUCUUAGGAUGCAGAGGCGGCAGCCUUCGGUAGCGCGAUAGCGCCAACGUUCUCAACUAUGACACGCAAAACGCGUGCUCCGAUGAAUGGAGUUUAUCAUG
GGAUCUUGUCGCUCUAACAUAAAAGACAAAGGUGCCACAAAGCUUGAGAGAAUCUUCGGAUGCAGAGGCGGCAGCCUUCGGUGGCGCGAUAGGGCCAACGUACUCAACUAUGACACGCAACACGGGUGCUCCGUUGAAUGGAGUUUAUCAUG
GGAUCUUGUCGCUCUAACAAAAAAGACAAAUCUGCCACAAAGCUUGAGAUCAUUCUCGGAUGCAGUGGCGGCAGCCUUCUGUGGCACGAUAGCGCCAAUGUUCUCAACUAUGACACGCAACACGCGUGCUCCGUUGAAUCGAGUUUGUCAUG
GGAUCUUGUCGAUCUCACAAAAAAGACAAAUCUGCCACAAACCUUGAGAGCAUCUUCACAUGCAGAGGCGGCAGCCUUCGGUGGCGCGAUAGCGGCAACGUUCUCAACUAUGACACGCAAAACGCGUGCUCCGUUGAAUGGAGUUUAUCAUG
GGAUCUUGUCGAUCUGACAAAAAAGACAAAUCUGCCACAAAGCUUGAGAGCAGCUUAGGAUGCAGAGGCGGCAGCCUUCGGUGGCGCGAUCGCGGCAACGUUCUCAACUAUGUCACGCAAAACGCGUGCUCCGUUGAAUGGAGUUUAUCAUG
GGAUCUUGUCGAUCUGACAAAAAAGACAAAUCUGCCACAAAGCUUGAGAGCAGCUUAGGAUGCAGAGGCGGCAGCCUUCGGUGGCGCGAUCGCGGCAACGUUCUCAACUAUGUCACGCAAAACGCGUGCUCCGUUGAAUGGAGUCUAUCAUG
GGAUCUUGUCGAUCUAUCAUAAAAGACAAAUCUGCCACAAAGCUUGGGAGCAUCUUCGGAUGCAGAGACGGCAGCCUUCGGUCGCGUGAUAGCGCCAACGUUCUCAACUAUGACACGCAAAACGCGUGCUCGGUUGAAUGGAGUUUAUCAUG
